From PubChem BioAssay AID463173 (ICCB-Longwood Screening Facility, Harvard Medical School, 2010) come the findings set out here.

In all, about 52,000 compounds went through this assay and about 1,700 (3.3%) were called active. No stated cut-off is given here; in the data, active means survival mostly below about 52% (no sharp cut-off); inactive means mostly above about 56%. This is one part of the list.

In the assay the test system is Wild type. Kind of assay: growth inhibition of S. aureus wild type versus tarO mutant, primary screen, teichoic acid synthesis inhibitors, RN4220, OD600 (AID 463173). The settings on record: S. aureus RN4220 wild type/DeltatarO growth, OD600, 18 h, stronger effect = lower value, screened at 18.75 µg/mL (by protocol).
For the compound `O=C(Oc1ccc(N(Cc2ccco2)C(=O)Cn2cnc3ccccc3c2=O)cc1)c1ccccc1F`, the survival was inactive: 103%.
As to `Cc1nn(-c2ccccc2)c(OC(=O)c2ccccc2F)c1S(=O)(=O)c1ccccc1`, the survival was inactive: 67%.
Under `COc1cccc2sc(N(Cc3cccnc3)C(=O)COc3ccccc3)nc12` stands inactive: 83%.
Take `NC(=O)Cn1cc(F)c(=O)[nH]c1=O`: the survival is inactive: 101%.
As for `Cc1ccc(C)c(NC(=O)CSc2nc(=O)n(CCN(C)C)c3c2CCC3)c1`, the survival is inactive: 127%.
On to `COc1cc(CN(C(=O)c2ccccc2[N+](=O)[O-])c2ccccn2)cc(OC)c1OC`, for which the survival was inactive: 85%.
Under `Cc1sc2c(c1C)c(=O)n(CCc1ccccc1)c(=O)n2Cc1ccccc1Cl` stands inactive: 96%.
`COc1cccc(N2CCN(C(=O)c3cccc(NC(=O)c4nsc5ccccc45)c3)CC2)c1`: the survival was inactive: 71%.
As for `CC1CCN(S(=O)(=O)c2ccc3c(c2)N(CC(=O)NCCCN2CCCCC2C)C(=O)CS3)CC1` (configuration not stated), the survival was inactive: 72%.
For `N#Cc1ccccc1NC(=O)c1cc2c(=O)n3ccccc3nc2s1`, the survival was inactive: 96%.
With `CCN(CC)S(=O)(=O)c1ccc2c(c1)nc(CN(C)C(=O)c1cccc(Cl)c1)n2C` the figure was inactive: 82%; with `COc1ccc(CCNC(=O)C2=C(C)C(=O)OC23CCCCC3)c(OC)c1OC`, inactive: 79%; with `CCn1c(=O)c2cc(C(=O)N3CCN(c4cccc(Cl)c4)CC3)sc2c2ccccc21`, inactive: 76%.
With `CCC(=O)N1CCNC(=O)C1CC(=O)OC` (configuration not stated) the figure was inactive: 117%; with `CN(C(=O)COc1ccccc1)c1nc(-c2ccccc2)cs1`, inactive: 111%.
Under `COc1cc(Cl)c(C)cc1NC(=O)c1cc(CN2CCOCC2)on1` stands inactive: 65%.
`COc1ccc(OC)c(CNC(=O)C2CCN(S(=O)(=O)c3cn(C)cn3)CC2)c1`: the survival was inactive: 82%.
With `Cc1ccc(S(=O)(=O)c2cn(Cc3ccccc3F)c3cc4c(cc3c2=O)OCO4)cc1` the figure was inactive: 121%.
`CC1CCCN(Cc2c(O)ccc3c(=O)c(Oc4ccccc4Cl)c(C(F)(F)F)oc23)C1` (configuration not stated): the survival is inactive: 71%.
With `CCN=C1SC(C(=O)Nc2ccc(Br)cc2)CC(=O)N1CC` (configuration not stated), the survival is inactive: 114%.
Take `CCc1ccccc1NC(=O)Nc1cc(C(=O)NCc2ccc(C(C)C)cc2)ccc1N1CCCC1`: the survival was inactive: 131%.
For the compound `Cc1cc(NC(=O)c2ccc3c(c2)N(Cc2cccc(Cl)c2)C(=O)c2ccccc2S3=O)ccc1Br` (configuration not stated), the survival was inactive: 72%.
Regarding `O=C(O)CN1C(=O)c2ccc(Br)cc2C1=O`, the survival is inactive: 113%.
On to `CCC1CN(S(=O)(=O)c2cc(-c3cc(C)no3)ccc2OC)c2cc(C)ccc2O1` (configuration not stated), for which the survival is inactive: 120%.
For `Cc1cc(=O)n2c(C(=O)Nc3ccc(C)c(Cl)c3)c(C(=O)Nc3ccccc3)sc2n1`, the survival is inactive: 81%.
As to `Cc1cc(C)c(S(=O)(=O)Nc2cc(-c3cn4ccccc4n3)ccc2C)cc1C`, the survival is inactive: 66%.
For `O=C(CCC(=O)c1ccccc1)Nc1cccnc1`, the survival was inactive: 96%.
Regarding `CCN1CCN(C(=O)c2ccc3c(c2)N(Cc2ccc(Cl)cc2)C(=O)c2ccccc2S3(=O)=O)CC1`, the survival is inactive: 92%.
Under `COc1ccc(C(=O)N(Cc2sccc2C)C2CCS(=O)(=O)C2)cc1Cl` (configuration not stated) stands inactive: 113%; under `Cc1ccc(C(=O)c2sc(Nc3ccccc3F)c(S(=O)(=O)c3ccccc3)c2N)c(C)c1`, inactive: 91%; under `O=C(NCc1ccc2c(c1)OCO2)c1ccc2c(c1)N(Cc1cccc(Cl)c1)C(=O)c1ccccc1S2`, inactive: 66%.
For `Cc1cccc(N2CCN(C(=O)C3CCN(S(=O)(=O)c4c(C)noc4/C=C/c4ccccc4F)CC3)CC2)c1C`, the survival is inactive: 58%.
Turning to `CC1(C)Cc2ccccc2/C(=C/C(=O)N2CCOCC2)N1`, the survival was inactive: 110%.
Regarding `O=C(Cn1ncc2c([nH]c3ccccc32)c1=O)Nc1cc(F)ccc1F`, the survival was inactive: 71%.
Regarding `CC(=O)c1ccc(NC2=NS(=O)(=O)c3ccccc32)cc1`, the survival is inactive: 91%.
`COc1c(Cl)cc(C(=O)Nc2cccc(-c3nc4ccccc4[nH]3)c2)cc1Cl`: the survival was inactive: 33%.
With `O=C(Nc1nnc(S(=O)(=O)N2CCCCCC2)s1)c1ccc(Br)cc1` the figure was inactive: 68%; with `O=C(CSc1nnc(-c2ccccc2)o1)Nc1ccccc1`, inactive: 100%.
For the compound `CCOC(=O)c1c(Nc2cccc(O)c2)nnc(-c2ccccc2)c1-c1ccccc1`, the survival was inactive: 44%.
As to `Cc1cc(C)c(Cn2c3ccccc3c3cnn(CC(=O)NCCc4ccccc4)c(=O)c32)c(C)c1`, the survival is inactive: 166%.
Under `CCc1cccc(C)c1NS(=O)(=O)c1c(C(=O)N2CCCCCC2)c(C)n(C)c1C` stands inactive: 75%; under `Cc1ccc(Cl)cc1N1CCN(C(=O)CN2C(=O)COc3ccc(S(=O)(=O)N4CCOCC4)cc32)CC1`, inactive: 75%; under `COc1ccc(Cl)cc1NC(=O)Cn1nnc2sc3c(c2c1=O)CCC(C(C)(C)C)C3` (configuration not stated), inactive: 82%.
With `O=C(NCc1ccc(F)cc1)c1ccc(CSc2nc3ccncc3n2Cc2ccc(F)cc2)cc1` the figure was inactive: 85%; with `Cc1ccc(C)n1-c1cccc2cccnc12`, inactive: 103%.
As to `CCOc1ccccc1C1CC(=O)NC(C)=C1C(=O)OC1CCCCCC1` (configuration not stated), the survival was inactive: 85%.
Under `COCCNC(=O)Cn1c(=O)n(Cc2ccc(C(=O)NCCc3ccc(OC)c(OC)c3)cc2)c(=O)c2ccccc21` stands inactive: 124%; under `O=C(CSc1nc2ccccc2nc1Cc1ccc(F)cc1)Nc1ccc2c(c1)OCO2`, inactive: 64%.
Take `COc1cc(Cl)c(C)cc1NC(=O)CCCN1C(=O)C(c2ccccc2)Oc2cccnc21` (configuration not stated): the survival is inactive: 92%.
In the case of `Cc1cccc(Oc2nc3ccccn3c(=O)c2/C=C(\C#N)c2nc3ccccc3s2)c1C`, the survival is inactive: 67%.
With `COc1ccc(NC(=O)C2CCCN(S(=O)(=O)c3cn(C)cn3)C2)cc1Cl` (configuration not stated) the figure was inactive: 45%; with `Cc1ccc(NC(=O)Cn2cc(S(=O)(=O)c3ccc(F)cc3)c(=O)c3cc4c(cc32)OCO4)cc1`, inactive: 71%; with `Cc1ccc(NC(=O)CSc2nccn2C2CCCC2)cc1`, inactive: 67%.
On to `COc1ccc(CCNC(=O)c2ccc3c(c2)CCN3S(=O)(=O)c2ccc(Cl)cc2)cc1`, for which the survival was inactive: 88%.
Under `COc1ccc(OC)c(NC(=O)c2ccc(-c3nc(CSc4ccccc4)c(C)o3)cc2)c1` stands inactive: 63%.
For `CC(C)(C)C(=O)Cn1c(=O)n(CCCCCC(=O)NCc2ccc3c(c2)OCO3)c(=O)c2sccc21`, the survival is inactive: 85%.
Turning to `Cc1ccc(C(=O)CSc2nc3cc(C(=O)NC4CCCC4)ccc3c(=O)n2CC2CCCO2)cc1` (configuration not stated), the survival was inactive: 75%.
`CCCCn1cc(S(=O)(=O)c2ccc(CC)cc2)c(=O)c2cc(F)c(N3CCCC(C)C3)cc21` (configuration not stated): the survival was inactive: 115%.
With `COc1ccccc1CCNC(=O)c1ccc(NC(=O)N2CC(C)Sc3ccccc32)cc1` (configuration not stated), the survival was inactive: 85%.
Consider `CSc1cccc(NS(=O)(=O)c2ccc3[nH]cc(C(=O)N4CCCC4)c(=O)c3c2)c1`, for which the survival was inactive: 85%.
For the compound `Cn1c(=O)n(C)c2cc(N3CCCCC3)c(NC(=O)c3ccc(Cl)cc3)cc21`, the survival was inactive: 85%.
On to `COc1cc(OC)c(NC(=O)c2c(C)nn(-c3ccc(C)cc3)c2-n2cccc2)cc1Cl`, for which the survival was inactive: 73%.
Under `COc1ccc(C(=O)NCCn2cc(SCC(=O)Nc3ccccc3)c3ccccc32)cc1OC` stands inactive: 65%; under `CCOC(=O)Cn1nnnc1CN(Cc1cc2c(C)ccc(C)c2[nH]c1=O)C1CCCCC1`, inactive: 104%; under `O=C(Nc1ccccc1O)c1ccccn1`, inactive: 114%.
For the compound `Cc1cc(C)cc(NC(=O)C2CCCN2S(=O)(=O)c2ccc3c(c2)C(C)(C)C(=O)N3C)c1` (configuration not stated), the survival is inactive: 83%.
For `CCOC(=O)c1ccc(NC(=O)c2ccc3c(c2)c(C)c(C)n3Cc2ccc(F)cc2)cc1`, the survival was inactive: 90%.
Under `O=C(CN1CCN(c2nc3ccccc3s2)CC1)Nc1ccc2c(c1)OCO2` stands inactive: 101%.
For the compound `CCOC(=O)C1(C)C=C(Nc2ccc(OC)cc2)C(=O)N1c1ccccc1` (configuration not stated), the survival is inactive: 67%.
`COc1ccccc1NC(=O)c1oc2ccccc2c1NC(=O)c1c(F)cccc1F`: the survival is inactive: 60%.
For `COc1ccc(Cn2cc(C(=O)c3ccc(Cl)cc3)c(=O)c3cc4c(cc32)OCO4)cc1`, the survival was inactive: 71%.
Take `CCN(CC)c1ccc(/C=C2/SC(=O)NC2=O)cc1`: the survival was inactive: 114%.
For the compound `Cc1cc(C)c(Cn2c3ccccc3c3cnn(CC(=O)NC4CCCCCC4)c(=O)c32)c(C)c1`, the survival is inactive: 127%.
Turning to `Cc1ccc(-c2nnn(CC(=O)NC(C)C)n2)cc1`, the survival was inactive: 105%.
As to `Cc1ccc(-n2nc3c(N4CCC(C(=O)N5CCC(C)CC5)CC4)nnc(C)c3c2C)cc1`, the survival was inactive: 136%.
On to `O=C(Nc1cccc(Cl)c1Cl)c1cc(S(=O)(=O)N2CCC3(CC2)OCCO3)ccc1F`, for which the survival is inactive: 75%.
Consider `COc1cc(OC)cc(C(=O)Nc2ccc(S(=O)(=O)N3CCCCC3c3cccnc3)cc2)c1` (configuration not stated), for which the survival was inactive: 71%.
On to `COC(=O)c1cc2oc3ccccc3c2n1Cc1nc(-c2cccc(Cl)c2)oc1C`, for which the survival was inactive: 133%.
With `CCc1ccc(Nc2nn3c(=O)c4cc5c(cc4nc3s2)OCO5)cc1`, the survival was inactive: 78%.
With `Cc1c(C(=O)NC2CCCCC2)oc2ccccc12` the figure was inactive: 130%; with `COCCn1nnnc1C(c1ccc(OC)c(OC)c1)N1CCc2ccccc21` (configuration not stated), inactive: 121%; with `O=C(NCCN1CCN(c2ccccc2F)CC1)C1COc2ccccc2C1` (configuration not stated), inactive: 73%.
For the compound `C=CCNC(=O)c1cc(-c2ccccc2)on1`, the survival was inactive: 116%.
Consider `NC(=O)CN1CCC(N2CCCCC2)CC1`, for which the survival is inactive: 90%.
On to `CC(C)Cn1c(=O)c2sccc2n2c(CCCC(=O)NCC(C)c3ccccc3)nnc12` (configuration not stated), for which the survival is inactive: 96%.
As to `COc1ccc(CNC(=O)c2ccc3c(c2)N(Cc2ccccc2F)C(=O)c2ccccc2S3=O)cc1` (configuration not stated), the survival is inactive: 86%.
Under `CC(=O)Nc1nonc1-c1nnc(SCc2ccccc2C)n1C` stands inactive: 78%.
